The supplement of paper PMC8728848
This is one part of the list.

How the values were obtained:
Test in all cases: glycan array binding signal (z-score within array); higher = stronger binding
Settings in all cases: glycan notation: IUPAC condensed, linker removed
[1] = target: Neu5Ac(a2-3)Gal(b1-4)GlcNAc(b1-2)[Neu5Ac(a2-3)Gal(b1-4)GlcNAc(b1-4)]Man(a1-3)[GlcNAc(b1-4)][Neu5Ac(a2-3)Gal(b1-4)GlcNAc(b1-2)[Neu5Ac(a2-3)Gal(b1-4)GlcNAc(b1-6)]Man(a1-6)]Man(b1-4)GlcNAc(b1-4)GlcNAc
Method in brief: (§1)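 Glycan array data were curated from 3228 arrays in the Consortium for Functional Glycomics database and kept only where the protein sequence was available. Glycan names were converted to IUPAC-condensed notation, and columns mapping to the same glycan were averaged. The binding signal is a within-array Z-score, averaged across arrays of the same protein sequence at different concentrations or buffers and across linkers. Negative Z-scores can be read as non-binding.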

[2] = target: Neu5Ac(a2-3)Gal(b1-4)GlcNAc(b1-2)[Neu5Ac(a2-3)Gal(b1-4)GlcNAc(b1-4)]Man(a1-3)[GlcNAc(b1-4)][Neu5Ac(a2-3)Gal(b1-4)GlcNAc(b1-4)Man(a1-6)]Man(b1-4)GlcNAc(b1-4)GlcNAc
Method in brief: as §1

[3] = target: Neu5Ac(a2-3)Gal(b1-4)GlcNAc(b1-2)[Neu5Ac(a2-3)Gal(b1-4)GlcNAc(b1-6)]Man(a1-6)[Neu5Ac(a2-3)Gal(b1-4)GlcNAc(b1-2)Man(a1-3)][GlcNAc(b1-4)]Man(b1-4)GlcNAc(b1-4)GlcNAc
Method in brief: as §1

[4] = target: Neu5Ac(a2-3)Gal(b1-4)GlcNAc(b1-3)Gal
Method in brief: as §1

[5] = target: Neu5Ac(a2-3)Gal(b1-4)GlcNAc(b1-3)Gal(b1-3)GlcNAc
Method in brief: as §1

[6] = target: Neu5Ac(a2-3)Gal(b1-4)GlcNAc(b1-3)Gal(b1-4)GlcNAc
Method in brief: as §1

[7] = target: Neu5Ac(a2-3)Gal(b1-4)GlcNAc(b1-3)Gal(b1-4)GlcNAc(b1-2)Man(a1-3)[Neu5Ac(a2-3)Gal(b1-4)GlcNAc(b1-3)Gal(b1-4)GlcNAc(b1-2)Man(a1-6)]Man(b1-4)GlcNAc(b1-4)GlcNAc
Method in brief: as §1

[8] = target: Neu5Ac(a2-3)Gal(b1-4)GlcNAc(b1-3)Gal(b1-4)GlcNAc(b1-3)Gal(b1-4)GlcNAc
Method in brief: as §1

[9] = target: Neu5Ac(a2-3)Gal(b1-4)GlcNAc(b1-3)Gal(b1-4)GlcNAc(b1-3)Gal(b1-4)GlcNAc(b1-2)Man(a1-3)[Neu5Ac(a2-3)Gal(b1-4)GlcNAc(b1-3)Gal(b1-4)GlcNAc(b1-3)Gal(b1-4)GlcNAc(b1-2)Man(a1-6)]GalNAc
Method in brief: as §1

[10] = target: Neu5Ac(a2-3)Gal(b1-4)GlcNAc(b1-3)Gal(b1-4)GlcNAc(b1-3)GalNAc
Method in brief: as §1

[11] = target: Neu5Ac(a2-3)Gal(b1-4)GlcNAc(b1-3)Gal(b1-4)GlcNAc(b1-3)[Neu5Ac(a2-3)Gal(b1-4)GlcNAc(b1-3)Gal(b1-4)GlcNAc(b1-6)]GalNAc
Method in brief: as §1

[12] = target: Neu5Ac(a2-3)Gal(b1-4)GlcNAc(b1-3)Gal(b1-4)GlcNAc(b1-6)[Gal(b1-3)]GalNAc
Method in brief: as §1

[13] = target: Neu5Ac(a2-3)Gal(b1-4)GlcNAc(b1-3)Gal(b1-4)[Fuc(a1-3)]GlcNAc
Method in brief: as §1

[14] = target: Neu5Ac(a2-3)Gal(b1-4)GlcNAc(b1-3)GalNAc
Method in brief: as §1

[15] = target: Neu5Ac(a2-3)Gal(b1-4)GlcNAc(b1-3)[Neu5Ac(a2-3)Gal(b1-4)GlcNAc(b1-6)]GalNAc
Method in brief: as §1

[16] = target: Neu5Ac(a2-3)Gal(b1-4)GlcNAc(b1-6)GalNAc
Method in brief: as §1

[17] = target: Neu5Ac(a2-3)Gal(b1-4)GlcNAc(b1-6)[Gal(b1-3)]GalNAc
Method in brief: as §1

[18] = target: Neu5Ac(a2-3)Gal(b1-4)GlcNAc(b1-6)[Neu5Ac(a2-3)Gal(b1-3)]GalNAc
Method in brief: as §1

[19] = target: Neu5Ac(a2-3)Gal(b1-4)GlcNAc6S
Method in brief: as §1

[20] = target: Neu5Ac(a2-3)Gal(b1-4)[Fuc(a1-3)]GlcNAc
Method in brief: as §1

[21] = target: Neu5Ac(a2-3)Gal(b1-4)[Fuc(a1-3)]GlcNAc(b1-2)Man
Method in brief: as §1

[22] = target: Neu5Ac(a2-3)Gal(b1-4)[Fuc(a1-3)]GlcNAc(b1-3)Gal
Method in brief: as §1

[23] = target: Neu5Ac(a2-3)Gal(b1-4)[Fuc(a1-3)]GlcNAc(b1-3)Gal(b1-4)GlcNAc
Method in brief: as §1

[24] = target: Neu5Ac(a2-3)Gal(b1-4)[Fuc(a1-3)]GlcNAc(b1-3)Gal(b1-4)[Fuc(a1-3)]GlcNAc(b1-3)Gal(b1-4)[Fuc(a1-3)]GlcNAc
Method in brief: as §1

[25] = target: Neu5Ac(a2-3)Gal(b1-4)[Fuc(a1-3)]GlcNAc(b1-3)GalNAc
Method in brief: as §1

[26] = target: Neu5Ac(a2-3)Gal(b1-4)[Fuc(a1-3)]GlcNAc(b1-6)[Gal(b1-3)]GalNAc
Method in brief: as §1

[27] = target: Neu5Ac(a2-3)Gal(b1-4)[Fuc(a1-3)]GlcNAc(b1-6)[Neu5Ac(a2-3)Gal(b1-3)]GalNAc
Method in brief: as §1

[28] = target: Neu5Ac(a2-3)Gal(b1-4)[Fuc(a1-3)]GlcNAc6S
Method in brief: as §1

[29] = target: Neu5Ac(a2-3)Gal6S(b1-4)GlcNAc
Method in brief: as §1

[30] = target: Neu5Ac(a2-3)Gal6S(b1-4)[Fuc(a1-3)]GlcNAc
Method in brief: as §1

Neu5Ac(a2-3)GalNAc = target: Neu5Ac(a2-3)GalNAc
Method in brief: as §1

[31] = target: Neu5Ac(a2-3)GalNAc(b1-4)GlcNAc
Method in brief: as §1

[32] = target: Neu5Ac(a2-3)[GalNAc(b1-4)]Gal(b1-4)Glc
Method in brief: as §1

[33] = target: Neu5Ac(a2-3)[GalNAc(b1-4)]Gal(b1-4)GlcNAc
Method in brief: as §1

[34] = target: Neu5Ac(a2-3)[GalNAc(b1-4)]Gal(b1-4)GlcNAc(b1-3)GalNAc
Method in brief: as §1

[35] = target: Neu5Ac(a2-3)[Neu5Ac(a2-6)]GalNAc
Method in brief: as §1

Neu5Ac(a2-6)Gal = target: Neu5Ac(a2-6)Gal
Method in brief: as §1

B1: diCBM40 CPF071 (Clostridium perfringens) (protein)
chain: MAHHHHHHVGTGSNDDDDKSPDPMLSSLGEYKDINLESSNASNITYDLEKYKNLDEGTIVVRFNSKDSKIQSLLGISNSKTKNGYFNFYVTNSRVGFELRNQKNEGNTQNGTENLVHMYKDVALNDGDNTVALKIEKNKGYKLFLNGKMIKEVKDTNTKFLNNIENLDSAFIGKTNRYGQSNEYNFKGNIGFMNIYNEPLGDDYLLSKTGETKALNGSELGSGSGLSSLGEYKDINLESSNASNITYDLEKYKNLDEGTIVVRFNSKDSKIQSLLGISNSKTKNGYFNFYVTNSRVGFELRNQKNEGNTQNGTENLVHMYKDVALNDGDNTVALKIEKNKGYKLFLNGKMIKEVKDTNTKFLNNIENLDSAFIGKTNRYGQSNEYNFKGNIGFMNIYNEPLGDDYLLSKTGETK
With B1 the “glycan array binding signal (z-score)” value [1] was 1.34, the “glycan array binding signal (z-score)” value [2] was 0.36 and the “glycan array binding signal (z-score)” value [3] was 0.452. For the same binder, the “glycan array binding signal (z-score)” value [4] was 2.43, the “glycan array binding signal (z-score)” value [5] was -0.095 and the “glycan array binding signal (z-score)” value [6] was 4.06. The “glycan array binding signal (z-score)” value [7] was -0.325, the “glycan array binding signal (z-score)” value [8] was 5.87 and the “glycan array binding signal (z-score)” value [9] was -0.212. For the same binder, the “glycan array binding signal (z-score)” value [10] was -0.157, the “glycan array binding signal (z-score)” value [11] was 0.025 and the “glycan array binding signal (z-score)” value [12] was -0.225. The “glycan array binding signal (z-score)” value [13] was -0.264, the “glycan array binding signal (z-score)” value [14] was -0.147 and the “glycan array binding signal (z-score)” value [15] was 0.017. The “glycan array binding signal (z-score)” value [16] was -0.026, the “glycan array binding signal (z-score)” value [17] was -0.268 and the “glycan array binding signal (z-score)” value [18] was 0.191. The “glycan array binding signal (z-score)” value [19] was 7.8, the “glycan array binding signal (z-score)” value [20] was 1.7 and the “glycan array binding signal (z-score)” value [21] was 0.06. The “glycan array binding signal (z-score)” value [22] was 3.06, the “glycan array binding signal (z-score)” value [23] was 2.04 and the “glycan array binding signal (z-score)” value [24] was 0.119. For the same binder, the “glycan array binding signal (z-score)” value [25] was -0.274, the “glycan array binding signal (z-score)” value [26] was -0.235 and the “glycan array binding signal (z-score)” value [27] was -0.175. The “glycan array binding signal (z-score)” value [28] was 5.95, the “glycan array binding signal (z-score)” value [29] was 7.24 and the “glycan array binding signal (z-score)” value [30] was 4.71. For the same binder, the “glycan array binding signal (z-score)” value (Neu5Ac(a2-3)GalNAc) was -0.325, the “glycan array binding signal (z-score)” value [31] was -0.019 and the “glycan array binding signal (z-score)” value [32] was -0.239. For the same binder, the “glycan array binding signal (z-score)” value [33] was -0.192, the “glycan array binding signal (z-score)” value [34] was -0.223 and the “glycan array binding signal (z-score)” value [35] was -0.291. For the same binder, the “glycan array binding signal (z-score)” value (Neu5Ac(a2-6)Gal) was 0.322.
